For assay [1], the system named is pseudovirus NL4-3-ADA-Luc (R5-tropic). Nature of the assay: microbe, parasite or virus in culture. The note with it: NL43, U87/CD4/CCR5, read-out: Inhibition of Virus-Cell Fusion, IC50.
The test system is the same in assay [2]. Conditions: read-out: Inhibition of Virus-Cell Fusion, IC50; Cells: U87-CD4-CCR5; Virus: NL4-3-ADA-Luc.

Where two headings read alike, the source gives them in different places.

Here are results for five compounds from US20140377219A1, “HIV INHIBITORS” (New york Blood Center, Inc., priority 2011, published 2014).

Broadly, the IC50 is the point on the concentration scale where inhibition reaches its midpoint.

`Cc1nc(C(NC(=O)C(=O)Nc2ccc(Cl)c(F)c2)C2CCCCN2)sc1CO` (centres unmarked) [Compound 27, N^1-(4-chloro-3-fluorophenyl)-N^2-((5-(hydroxymethyl)-4-methylthiazol-2-yl)(piperidin-2-yl)methyl)oxalamide.2HCl]: the IC50 in assay [1] stood at 16 ± 0.6 µM. For the compound `Cc1nc(C(NC(=O)C(=O)Nc2ccc(Cl)c(F)c2)C2CCCCN2)sc1CCO.Cl` (centres unmarked) [Compound 39, N^1-(4-chloro-3-fluorophenyl)-N^2-((5-(2-hydroxyethyl)-4-methylthiazol-2-yl)(piperidin-2-yl)methyl)oxalamide.HCl], the IC50 in assay [2] stood at 3.7 ± 0.4 µM. As for `Cc1nc(C(NC(=O)C(=O)Nc2ccc(Cl)cc2)C2CCCCN2)sc1CO.Cl` (centres unmarked) [Compound 6, N^1-(4-chlorophenyl)-N^2-((5-(hydroxymethyl)-4-methylthiazol-2-yl)(piperidin-2-yl)methyl)oxalamide.HCl], the IC50 in assay [2] is 9.1 ± 0.7 µM. In the case of `CC1(C)CC(NC(=O)C(=O)Nc2ccc(Cl)cc2)CC(C)(C)N1` [NBD-556, reference compound], in assay [2], the IC50 turned out to be 11 ± 1.6 µM.

For `Cc1ccc(NC(=O)C(=O)NC(c2nc(C)c(CO)s2)C2CCCCN2)cc1F.Cl` (centres unmarked) [Compound 28, N^1-(3-fluoro-4-methylphenyl)-N^2-((5-(hydroxymethyl)-4-methylthiazol-2-yl)(piperidin-2-yl)methyl)oxalamide.HCl], the IC50 in assay [2] worked out at 17.3 ± 0.4 µM.
